# Results taken from PubChem BioAssay AID904 (National Center for Advancing Translational Sciences (NCATS), 2007).
# Hit rate of the full screen: of about 55,000 compounds, about 530 (0.96%) were called active. Inconclusive results, whose numbers are uncertain, are shown with a selection of clear calls. Calls come from the whole dose curve; as a rule, active = well fitted cell-killing curve with a large enough effect; inconclusive = small, poorly fitted or top-dose-only effect; inactive = no such curve, though single readings can be large or run the other way. Potencies beside an inconclusive call are fits to weak or partial responses and may not hold up.
# Assay: qHTS Screen for Compounds that Selectively Target Cancer Cells with p53 Mutations: Cytotoxicity of p53 Null Cells at the Nonpermissive Temperature; note: nearly all actives have a fitted effect of over 50% in size;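 for activity, negative = cell killing: 0% = DMSO only and -100% = full killing by 100 µM tamoxifen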
# Conditions: H1299 p53-null (neo) cells, 39C, ATPlite viability, 24 h; activity, negative = cell killing: at 46.1 µM (top of the series)
# Method in brief: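 Luminescent ATP signal reported cell survival after H1299 lines (neo, p53 null; or p53 A138V) received up to 46 uM compound and 24 hr incubation at 39C.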
# Potency is the fitted concentration of half-maximal effect; tags give direction and shape of the fitted curve.
SMILES,Potency,"activity, negative = cell killing"
CCCCN(C)CC(O)Cn1cc(/C=C/C(=O)c2ccc(OCC)cc2)c2ccccc21 (stereo not given),active: 5.01 µM,
O=C(CCn1c(=O)c2ccccc2n(Cc2ccc(Cl)cc2)c1=O)NCc1ccc2c(c1)OCO2,,inconclusive: -36.7% [cytotoxic]
CCOC(=O)c1[nH]c(C)c(C(=O)NCCc2ccccc2)c1C,,inactive: -0.26%
CCn1c(C(=O)NCc2ccccc2)cc2sc(Cl)cc21,"inconclusive: 25.1 µM [cytotoxic, single point]",
Clc1ccc(-c2noc3ncnc(N4CCCCC4)c23)cc1,,inactive: -3.86%
Cc1ccccc1NC(=O)CSc1nc2ccc(NC(=O)c3ccco3)cc2s1,"inconclusive: 10 µM [cytotoxic, partial curve, poor fit]",
CC(CNC(=O)c1ccc(Cn2c(SCc3ccccc3)nc3cccnc32)cc1)c1ccccc1 (stereo not given),"inconclusive: 10 µM [cytotoxic, partial curve]",
Cc1ccc(-n2nc(CO)c(C(=O)NCCO)n2)cc1,"inconclusive: 12.6 µM [cytotoxic, single point]",
O=C(Nc1cccc(C(=O)N2CCN(c3ccc(F)cc3)CC2)c1)c1nsc2ccccc12,"inconclusive: 5.01 µM [cytotoxic, partial curve]",
CCN(CCCNC(=O)c1cc2c(=O)[nH]c3ccc(C)cc3c2s1)Cc1ccccc1,"inconclusive: 14.1 µM [cytotoxic, partial curve, poor fit]",
CCOc1ccc(-n2c(SC(C)C(=O)OC)nc3c([nH]c4ccccc43)c2=O)cc1 (stereo not given),,inactive: 10.6%
Cc1cccc(CSCCNC(=O)CN(c2ccccc2)S(=O)(=O)N(C)C)c1,"inconclusive: 15.8 µM [cytotoxic, single point]",
CCc1cccc(NC(=O)c2ccc3c(=O)n4nc(Nc5ccccc5OC)sc4nc3c2)c1,"inconclusive: 6.31 µM [cytotoxic, partial curve]",
CC(=O)Nc1ccc(S(=O)(=O)Nc2ccc3c(c2)n(C)c(=O)n3C)c(C)c1,"inconclusive: 0.316 µM [cytotoxic, full curve, poor fit]",
CCc1nnc(NC(=O)CSc2nccn2Cc2ccc(F)cc2)s1,"inconclusive: 0.0251 µM [cytotoxic, full curve, poor fit]",
CC(NC(=O)C(=O)Nc1c2c(nn1-c1ccccc1)CSC2)c1ccccc1 (stereo not given),"inconclusive: 8.91 µM [cytotoxic, partial curve, poor fit]",
O=C(NC1CC1)c1ccc(Cn2c(SCc3ccccc3F)nc3cccnc32)cc1,active: 12.6 µM,
COc1cccc(CNC(=O)Cn2c(SCC(=O)Nc3ccc(F)cc3)nc3ccccc32)c1,"inconclusive: 0.0089 µM [cytotoxic, full curve, poor fit]",
Cc1nnc(SCC(=O)NCc2ccc(N(C)C)cc2)c2nn(-c3ccccc3)c(C)c12,,inactive: 29.1%
CCN(CC)C(=O)Cn1c(=O)n(CCCCCC(=O)NCc2ccccc2)c(=O)c2sccc21,,inactive: -6.91%

SMILES,Potency,"activity, negative = cell killing"
CSc1cccc(N2C(=O)N(CC(=O)NCc3ccccc3Cl)c3ccccc3S2(=O)=O)c1,,inactive: 19.4%
COc1cc(Cl)c(C)cc1Nc1c2c(nc3ccccc13)CCC2,"inconclusive: 20 µM [cytotoxic, partial curve, poor fit]",
CC(C)c1ccc(Nc2c(-c3ccco3)nc3ccccn23)cc1,"inconclusive: 20 µM [cytotoxic, partial curve, poor fit]",
CCOC(=O)c1ccc(NC(=O)CSc2nc3c([nH]c4ccccc43)c(=O)n2C)cc1,"inconclusive: 0.251 µM [cytotoxic, full curve, poor fit]",
CC(=O)c1ccc(NC(=O)c2nc3nc(C)cc(C(F)F)n3n2)cc1,,inactive: 11.3%
COc1ccc(-c2cc(=O)oc3c4c(ccc23)OCN(Cc2cccc(OC)c2)C4)cc1,,inactive: 17.3%
Cc1cc(C)c2c(n1)SCCN2C(=O)Nc1ccc(C(=O)Nc2ccc(C(C)C)cc2)cc1,"inconclusive: 8.91 µM [cytotoxic, partial curve]",
CCN(CCN(C)C)C(=O)C1CCN(S(=O)(=O)c2c(C)noc2/C=C/c2ccccc2F)CC1,"inconclusive: 25.1 µM [cytotoxic, single point]",
O=C(Nc1c(Cl)cccc1Cl)c1cc(-c2cccc(O)c2)on1,active: 12.6 µM,
O=C(/C=C/c1cn(CC(O)CN2CCCCCC2)c2ccccc12)c1ccc(Br)cc1 (stereo not given),active: 15.8 µM,
COC(=O)c1ccccc1NC(=O)c1cc2c(-c3ccc(OC)c(OC)c3)nn(C)c2s1,"inconclusive: 15.8 µM [cytotoxic, single point]",
COc1ccc(-c2noc(-c3ccc(N4CCC(C)CC4)c([N+](=O)[O-])c3)n2)cc1OC,"inconclusive: 35.5 µM [cytotoxic, single point]",
CCCSCCCNC(=O)c1cc2n(n1)CCCN(Cc1ccc(C)cc1)C2=O,"inconclusive: 20 µM [cytotoxic, partial curve, poor fit]",
CC(CNC(=O)c1ccc2c(c1)nc1n2CCOC1)c1ccccc1 (stereo not given),"inconclusive: 5.62 µM [cytotoxic, partial curve, poor fit]",
CCOC(=O)CN1C(C(=O)c2ccccc2)=C(OC(=O)c2ccccc2)c2ccccc2S1(=O)=O,"inconclusive: 15.8 µM [cytotoxic, single point]",
CCCCOc1ccc(C(=O)Nc2onc3c2CCCC3)cc1,"inconclusive: 0.0079 µM [cytotoxic, full curve, poor fit]",
COC(=O)c1c(SCC(=O)Nc2cc(F)ccc2F)[nH]c2ccc(C)cc2c1=O,"inconclusive: 2.51 µM [cytotoxic, full curve]",
COc1ccc(-c2cc3nc(C)c(CCC(=O)N4CCN(c5cc(C)ccc5C)CC4)c(C)n3n2)c(OC)c1,,inactive: -15.3%
CCOc1ccc(-c2cc(C(=O)N3CCN(c4ccc(C)cc4)C(C)C3)c3ccccc3n2)cc1 (stereo not given),"inconclusive: 10 µM [cytotoxic, partial curve]",
Cc1ccccc1CSc1cn(CC(=O)N2CCCC2)c2ccccc12,"inconclusive: 0.01 µM [cytotoxic, full curve, poor fit]",
